Source: paper PMC12040169 (PLOS Biology, 2025)
This is one part of the list.

Tested on: T1, C. trachomatis L2/434/Bu expressing GFP (CTL2-GFP)
T1 construct: L2/434/Bu GFP intracellular growth in HeLa cells
Parameters: species or system HeLa; C. trachomatis total inclusion area by high-content imaging, normalised to DMSO
Settings: total inclusion area; 28.5 h, 10 µM; inhibitor
Procedure, shortened: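 Imaging read-out: GFP inclusions and Hoechst nuclei captured by high-content imaging after fixation. Inclusion area/number = chlamydial growth; nuclei count = host cell viability. MIC calculated per earlier method.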

SMILES | % of control remaining
Cc1c(NC(=O)COc2ccc([N+](=O)[O-])cc2)cccc1-c1nc2ncccc2o1 [CBK263912] | 91.7627
CCC1CC(C(F)(F)F)n2ncc(C(=O)O)c2N1 (centres unmarked) [CBK286893] | 98.9971
CCONC(=O)c1cc(-c2ccccc2C)nc2c1cnn2C(C)C [CBK304048] | 33.0388
O=C(O)C1C2CCC(C2)C1C(=O)NCCCCc1ccccc1 (centres unmarked) [CBK286967] | 131.557
Cc1ccc(OCC(O)CNC(=O)c2ccccc2C(=O)O)cc1 (centres unmarked) [CBK264778] | 105.433
CCN1CCN(C(=O)c2c[nH]c3ccccc23)CC1 [CBK200245] | 95.298
O=C(c1ccccc1F)N1CCN(C(=O)[C@@H]2C[C@@H]3C=C[C@H]2C3)CC1 [CBK282011] | 96.1032
CN(C)/C=N/c1nc2c(nc(Br)n2C2CC(O)C(CO)O2)c(=O)[nH]1 (centres unmarked) [CBK201319] | 77.4693
CCn1c(C)nc2cc(NC(=O)Cn3cc(C(=O)NC4CCCCC4)ccc3=O)ccc21 [CBK286095] | 103.221
CC(=O)N1CCc2cc(NC(=O)Cn3ccnc3C(C)C)ccc21 [CBK281471] | 108.088
CC(=O)Nc1nnc(SCC(=O)NCc2ccc3c(c2)OCO3)s1 [CBK287626] | 93.6283
O=C(Nc1cccc(-c2nnc3n2CCCCC3)c1)[C@@H]1CCCN1C(=O)c1cccs1 [CBK297090] | 98.7085
O=C(CC1Nc2ccccc2NC1=O)Nc1cccc(C(F)(F)F)c1 (centres unmarked) [CBK262510] | 107.185
CC1(C)CCCN(C(=O)CCn2ccc3ccncc32)C1 [CBK285173] | 91.8393
O=C(NCCN1CCOCC1)c1ccc(NS(=O)(=O)c2ccccc2)cc1 [CBK270118] | 107.172
Cc1noc(/C=C\c2cc(C)n(-c3ccc(C(=O)O)cc3)c2C)c1[N+](=O)[O-] [CBK268862] | 96.1346
O=C(CCc1ccc(O)c(O)c1)NNC(=S)Nc1ccc(F)cc1F [CBK267041] | 88.6803
Cc1cc(C(F)(F)F)nc2c(OCCOc3nccnc3N3CCNCC3)cnn12 [CBK024195C] | 102.79
O=C(O)C1CC=CCC1C(=O)NCc1ccncc1 (centres unmarked) [CBK265481] | 85.1315
COc1cc(-c2nccnc2NCc2ccc(OC(F)(F)F)cc2)cc(OC)c1OC [CBK038063] | 101.214
O=C(c1ccc(-c2ccc(F)cc2)o1)N1C[C@H]2CC[C@](O)(c3ccc(F)cc3)[C@H]2C1 [CBK286415] | 6.511
c1ccc(-c2nc3sc4c(ncn5cnnc45)c3c3c2CCC3)cc1 [CBK269566] | 86.1494
O=C(O)c1cc(S(=O)(=O)N2CCOCC2)ccc1F [CBK268398] | 76.872
CC(C)S(=O)(=O)N1C2CCC(C2)[C@@H]1COc1ccc(F)cc1 (some centres unmarked) [CBK285292] | 62.4272
COc1ccc(OC)c(C2=NO[C@@](CC(=O)O)(C(=O)NC3CCCCC3)C2)c1 [CBK286672] | 64.0995
O=C(O)c1cc(NC(=O)c2ccc3c(c2)C(=O)N(Cc2cccnc2)C3=O)cc(C(=O)O)c1 [CBK266761] | 98.1163
CC(C(=O)Nc1cccc(N2CCNCC2)c1)c1ccccc1 (centres unmarked) [CBK004770T] | 95.7347

SMILES | % of control remaining
O=C(NCC(c1ccccc1)c1ccccc1)N1CCN(Cc2ccccc2)CC1 [CBK155651] | 106.134
CS(=O)(=O)c1ccc(-c2nccnc2NCc2cccnc2)cc1 [CBK036977] | 81.4841
N#CCCN(C(=O)Nc1ccccc1Cl)C1CCCCC1 [CBK156366] | 96.2251
COc1ccc2cc(C(=O)NCCn3ccnc3C)n(C)c2c1 [CBK282544] | 115.007
COc1ccc(Br)cc1S(=O)(=O)Nc1c(C(=O)Nc2ccc(F)cc2)[nH]c2ccccc12 [CBK050095] | 84.3788
CCN1CCN(Cc2c(O)ccc3c(=O)c(Oc4ccccc4Cl)c(C(F)(F)F)oc23)CC1 [CBK266627] | 112.405
CC1=NNC(=O)C1Cc1c(Cl)cccc1Cl (centres unmarked) [CBK067754] | 101.436
COCCNc1nc(-c2ccc(N3CCOCC3)cc2)ccc1C(=O)N1CCN(C)CC1 [CBK105943] | 104.654
Cc1cc(-c2cn3cc(C(=O)NCCCCO)nc3c(=O)n2C)c(C)o1 [CBK307037] | 21.8631
COc1ccc(C(=O)N2Cc3ccccc3C2)c(OC)n1 [CBK200317] | 94.8939
Cc1cc2ncc3c(n2n1)CC1CCC3N1C(=O)CCn1cccc1 (centres unmarked) [CBK283157] | 98.4161
CCSc1nc(=O)c2c(n1C)NC(=O)CC2c1ccc(OC)cc1 (centres unmarked) [CBK307542] | 98.8321
O=C(O)CC(NCc1ccccc1)C(=O)Nc1ccccc1Br (centres unmarked) [CBK267118] | 112.243
CCOC(=O)C1CCCN(Cc2c[nH]nc2-c2ccc(OC)cc2F)C1 (centres unmarked) [CBK307304] | 66.7989
O=C(NC1CCCc2c1cnn2-c1ccc(F)cc1)C1CC1 (centres unmarked) [CBK283928] | 109.592
CSCCCNC(=O)c1ccc(-c2ccoc2)nc1 [CBK156262] | 98.9785
COc1ccccc1CN[C@@H]1CCC[C@H]1Cc1cc(C)no1 [CBK283005] | 93.7357
NCCNc1cccc2c1ccn2S(=O)(=O)c1ccccc1 [CBK028470C] | 68.392
O=C(N[C@H]1CO[C@H]2[C@@H]1OC[C@@H]2Nc1nccc(-c2cccs2)n1)c1cccs1 [CBK289518] | 58.1045
COc1ccc(C2(O)CCN(CC(O)c3ccc4c(c3)CCC4)CC2)cc1 (centres unmarked) [CBK286334] | 89.1738
C(=C\CSc1nc2ccccc2[nH]1)/CSc1nc2ccccc2[nH]1 [CBK263090] | 93.0415
Nc1nc(SCC(=O)NCCCO)nc2sc3c(c12)CCC3 [CBK264952] | 99.5832
CCN(CC)c1ccc(NC(=O)c2cccc(OC)c2OC)c(C)c1 [CBK097801] | 108.622
Cc1nc(CN2CCCN(C(=O)c3cccc(C#N)c3)CC2)cs1 [CBK305363] | 71.3268
COc1cc(OC)nc(NC(=O)CN2CCN(c3ccc(F)cc3)CC2)n1 [CBK267259] | 129.958
CC(C)(C)OC(=O)NCc1ccc(-c2cc(NC3CCCCC3)ncn2)cc1 [CBK090898] | 109.473
CC(C)Nc1nc2ccccc2nc1SCCOc1ccccc1 [CBK103668] | 79.2743

SMILES | % of control remaining
C=CCn1c(C)c(CN2CCc3nc(C)[nH]c(=O)c3C2)c2ccccc21 [CBK282375] | 86.3732
COc1cc(/C=C2/SC(=O)NC2=O)cc(I)c1O [CBK100075] | 83.2764
CCN(CC)c1ccc(NC(=O)c2cc(-c3cccnc3)cnc2NCCN2CCOCC2)cc1 [CBK126566] | 87.0024
C[S+]([O-])CCC(NS(=O)(=O)c1ccccc1)C(=O)O (centres unmarked) [CBK268267] | 91.2075
O=C(O)c1cccc(-n2c(S)nnc2-c2cnccn2)c1 [CBK269252] | 85.2504
COc1ccc(N(CC(=O)N2CCN(Cc3ccc4c(c3)OCO4)CC2)S(C)(=O)=O)cc1Cl [CBK265258] | 94.255
O=C(NCCOc1ccc(F)cc1)c1cccs1 [CBK057930] | 88.9143
c1ccc2[nH]c(NCCN3CCOCC3)nc2c1 [CBK268791] | 96.9323
Cc1ccc(OCc2ccc(Cl)s2)c(Br)c1 [CBK002840] | 56.4468
O=C(Nc1cc(N2CCNCC2)ncn1)c1cnc2ccccc2c1 [CBK004209T] | 95.7385
COc1ccc(Cn2nc(NS(=O)(=O)c3cn(C)cn3)c3ccccc32)cc1 [CBK048143] | 82.5189
CCNCc1cc2c(C)nn(-c3ccc(F)cc3)c2[nH]c1=O [CBK283118] | 71.5117
O=C(O)COc1ccc(NC(=O)CSCc2ccc(Cl)cc2Cl)cc1 [CBK131700] | 95.4704
Cc1[nH]c2ccc(C(=O)N(Cc3ccccc3)C3CC3)cc2c1C [CBK297913] | 80.2622
COc1ccc2c(=O)c3c(oc2c1)C(=O)N(CCN(C)C)C3c1ccccn1 (centres unmarked) [CBK287781] | 89.4127
Cc1cc(C)c2c(c1)-c1c(ssc1=S)C(C)(C)N2C(=O)CSc1nnc[nH]1 [CBK263038] | 85.7489
COc1ccc2[nH]c3c(c2c1)CCOC31CCN(C(=O)Nc2ccc(C(C)C)cc2)CC1 [CBK047154] | 88.0335
CC(O)CN1CCN(c2nc(-c3ccncc3)nc3c2CCC3)CC1 (centres unmarked) [CBK304971] | 34.1287
Cn1c(=N)n(CC(=O)O)c2ccccc21 [CBK262926B] | 103.507
COCc1ccc(-c2nccnc2NS(=O)(=O)c2c(C)noc2C)cc1 [CBK049656] | 78.4072
Cc1nccn1C(=O)NC1CCCCC1 [CBK019187] | 110.064
Cc1noc(CN2CCN(CCc3ccc4c(c3)CCO4)CC2)n1 [CBK305208] | 54.7863
COc1cc(CNn2cnnc2S)ccc1OCC(=O)NC(C)(C)C [CBK266429] | 86.667
CN(C)CCCNC(=S)NCc1ccc(Cl)cc1 [CBK266910] | 114.027
CN1CCC(N2CCN(C(=O)NCCOc3ccccc3)CC2)CC1 [CBK156098] | 132.19
CS(=O)(=O)c1ccc(-c2ccc(C(=O)N3CCN(C(=O)OCc4ccccc4)CC3)cn2)cc1 [CBK160189] | 68.5186
